These results are taken from article PMC4336329 (PLoS ONE, 2015).

Hit rate of the full screen: of about 310,000 compounds, about 14,000 (4.5%) showed an effect of 50% or more. The effect is printed as a negative number. This is one part of the list.
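Note: peak tail current of the secondary pulse compared with the same well before compound.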

The test deals with human ether-à-go-go-related gene (hERG) potassium channel (human, UniProt Q12809). Description: primary screen, population patch clamp on CHO cells stably expressing hERG.
Chain of human ether-à-go-go-related gene (hERG) potassium channel (Q12809 whole entry, looked up): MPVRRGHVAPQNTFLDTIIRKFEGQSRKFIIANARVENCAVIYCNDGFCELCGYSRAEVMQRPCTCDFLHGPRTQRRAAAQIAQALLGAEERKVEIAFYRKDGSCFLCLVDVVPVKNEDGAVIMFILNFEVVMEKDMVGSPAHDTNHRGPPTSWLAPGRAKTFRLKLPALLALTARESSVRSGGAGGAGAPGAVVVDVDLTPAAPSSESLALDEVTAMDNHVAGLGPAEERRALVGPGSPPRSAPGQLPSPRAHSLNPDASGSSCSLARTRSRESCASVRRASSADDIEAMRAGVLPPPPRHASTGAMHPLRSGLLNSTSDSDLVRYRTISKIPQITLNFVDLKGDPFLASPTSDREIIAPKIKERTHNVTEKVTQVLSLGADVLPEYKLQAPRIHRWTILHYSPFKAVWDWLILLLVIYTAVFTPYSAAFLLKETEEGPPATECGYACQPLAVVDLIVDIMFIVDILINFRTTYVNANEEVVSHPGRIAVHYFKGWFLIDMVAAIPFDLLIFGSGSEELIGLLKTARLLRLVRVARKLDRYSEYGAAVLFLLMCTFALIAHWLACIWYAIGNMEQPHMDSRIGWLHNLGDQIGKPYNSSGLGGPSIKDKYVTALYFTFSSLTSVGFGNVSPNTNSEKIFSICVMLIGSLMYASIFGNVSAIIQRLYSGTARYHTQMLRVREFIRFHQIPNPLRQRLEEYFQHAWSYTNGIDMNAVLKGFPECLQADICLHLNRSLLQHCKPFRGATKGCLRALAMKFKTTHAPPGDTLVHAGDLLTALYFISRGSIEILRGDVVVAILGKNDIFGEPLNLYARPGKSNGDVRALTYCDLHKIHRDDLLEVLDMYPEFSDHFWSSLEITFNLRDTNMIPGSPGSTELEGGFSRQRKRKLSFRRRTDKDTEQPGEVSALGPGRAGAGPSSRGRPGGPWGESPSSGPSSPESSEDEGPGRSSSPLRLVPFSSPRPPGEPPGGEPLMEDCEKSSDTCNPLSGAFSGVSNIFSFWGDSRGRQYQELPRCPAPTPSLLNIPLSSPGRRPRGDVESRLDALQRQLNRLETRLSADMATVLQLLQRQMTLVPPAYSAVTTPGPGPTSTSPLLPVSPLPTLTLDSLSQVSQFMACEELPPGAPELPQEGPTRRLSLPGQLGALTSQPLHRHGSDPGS
With `Cn1c(=O)c2c(nc(NCc3cccnc3)n2Cc2cccc(C(F)(F)F)c2)n(C)c1=O`, the “hERG current change (%, negative = inhibition) at 10uM” value is recorded as -28.8%.
`CCOc1ccc2[nH]cc(C(=O)NCCCN3CCOCC3)c(=O)c2c1`: the “hERG current change (%, negative = inhibition) at 10uM” value turned out to be 16.3%.
For the compound `O=C(CCc1nc2ccccc2c(=O)[nH]1)Nc1nc(-c2cccs2)cs1`, the “hERG current change (%, negative = inhibition) at 10uM” value was -10.3%.
With `C/C(N)=C(/C#N)C(=O)COC(=O)C1CCN(C(=O)c2ccc(Cl)cc2)CC1`, the “hERG current change (%, negative = inhibition) at 10uM” value is given as -14.3%.
As for `FC(F)(F)c1nc2ccccc2n2c(-c3ccc(Cl)cc3Cl)nnc12`, the “hERG current change (%, negative = inhibition) at 10uM” value is -18.6%.
`CCCCNC(=O)C(=O)N/N=C/c1cccc(Br)c1`: the “hERG current change (%, negative = inhibition) at 10uM” value is reported as -3.36%.
For `Cc1ccc(C(=O)NC(C)c2ccc(-n3ccnc3)cc2)c(C)c1` (stereo not drawn), the “hERG current change (%, negative = inhibition) at 10uM” value is -57.4%.
Turning to `O=[N+]([O-])c1ccc(N2CCN(CCOc3nonc3-c3ccccc3)CC2)c(Cl)c1`, the “hERG current change (%, negative = inhibition) at 10uM” value is listed as -4.17%.
For `CCOC(=O)c1c(-c2ccccc2)oc2ccc(OCC)cc12`, the “hERG current change (%, negative = inhibition) at 10uM” value is on record as 2.75%.
On to `O=C(COc1ccccc1Cl)Nc1ccc(C(=O)N2CCCCC2)cc1`, for which the “hERG current change (%, negative = inhibition) at 10uM” value is given as -22.9%.
`N#CCCn1ncc2ccccc21`: the “hERG current change (%, negative = inhibition) at 10uM” value is reported as 14.8%.
Turning to `CC(C)(C)Nc1nc2nonc2nc1NC(C)(C)C`, the “hERG current change (%, negative = inhibition) at 10uM” value amounted to 7.77%.
In the case of `COc1ccc(C(=O)NCc2nnc(SCC(=O)Nc3cc(C)on3)o2)cc1OC` it was 3.22%.
Regarding `O=C(CCCCCN1C(=O)c2ccccc2C1=O)Nc1ccccc1`, the “hERG current change (%, negative = inhibition) at 10uM” value was -10.6%.
Regarding `CSc1ccc(/C=C/C(=O)OCC(=O)c2ccc[nH]2)cc1`, the “hERG current change (%, negative = inhibition) at 10uM” value amounted to 7.65%.
Take `COc1ccccc1C(=O)NCCC(=O)Nc1cccc(C)n1`: the “hERG current change (%, negative = inhibition) at 10uM” value was 12.3%.
In the case of `O=C(CC1C(=O)NCCN1CC(c1ccccc1)c1ccccc1)NC1CC1` (stereo not drawn) it was 35.1%.
For the compound `COc1cc(OC)c(-c2nc3c[n+](CC(=O)c4ccccc4)ccc3n2C)cc1OC.[Br-]`, the “hERG current change (%, negative = inhibition) at 10uM” value turned out to be 1.76%.
Then `CN(Cc1cccnc1)C(=O)CC1C(=O)NCCN1Cc1ccc(-c2ccccc2)cc1` (stereo not drawn), with -0.176%; and `Oc1c(C(c2ccccn2)N2CCOCC2)ccc2cccnc12` (stereo not drawn), with 19.8%.
In the case of `COc1cccc(NC(=O)N2C3CCCC2CC(NC(=O)C2CC2)C3)c1` (stereo not drawn) it was 6.96%.
`Oc1ccccc1-c1nc(NCCN2CCOCC2)c2ccccc2n1`: the “hERG current change (%, negative = inhibition) at 10uM” value is reported as -26.2%.
Then `CCN(CC)c1nc(-c2nn[nH]n2)nc(N(CC)CC)n1`, with 10%; and `Cc1cc(=O)n2c3c(cccc13)CCC2`, with 5.72%.
For the compound `COCCCNC(=O)c1cc(=O)n(Cc2ccc(Cl)cc2)c2ccccc12`, the “hERG current change (%, negative = inhibition) at 10uM” value is 8.7%.
In the case of `O=C(O)C1CC(=O)N(Cc2ccc3c(c2)OCO3)C1` (stereo not drawn), the “hERG current change (%, negative = inhibition) at 10uM” value worked out at 0.204%.
On to `O=C(NCCC1CCCCN1S(=O)(=O)c1ccccc1)C(=O)NCc1ccccc1` (stereo not drawn), for which the “hERG current change (%, negative = inhibition) at 10uM” value is listed as -20.5%.
For `COc1cc2c(C(=O)N3CCCc4ccccc43)cn(C)c(=O)c2cc1OC`, the “hERG current change (%, negative = inhibition) at 10uM” value is given as 5.98%.
Turning to `CC1Cn2c(nc(=O)c3c2NCN(CCc2ccccc2)C3)S1` (stereo not drawn), the “hERG current change (%, negative = inhibition) at 10uM” value was determined as 13.5%.
Turning to `CC(C)Oc1ccc(S(=O)(=O)N2CCCCC2)cc1NC(=O)C1CSC2(C)CCC(=O)N12` (stereo not drawn), the “hERG current change (%, negative = inhibition) at 10uM” value is on record as -20.9%.
For the compound `O=C1CCC/C(=N/Nc2ccc(Cl)cc2)C1`, the “hERG current change (%, negative = inhibition) at 10uM” value was 9.93%.
Regarding `CC(C)Sc1nc2ccccc2c(=O)[nH]1`, the “hERG current change (%, negative = inhibition) at 10uM” value is given as 4.07%.
As to `CN(C)c1cc(Nc2ccc(O)cc2)c([N+](=O)[O-])c2nonc12`, the “hERG current change (%, negative = inhibition) at 10uM” value was 4.25%.
In the case of `CCOCCCNC(=O)Cc1ccc(-n2c(CC)nc3cccnc32)cc1`, the “hERG current change (%, negative = inhibition) at 10uM” value is recorded as -8.18%.
Regarding `CCN(c1ccc(F)cc1)S(=O)(=O)c1ccc2[nH]cc(C(=O)NCCCN3CCOCC3)c(=O)c2c1`, the “hERG current change (%, negative = inhibition) at 10uM” value is given as -7.11%.
Regarding `COc1cccc(C(=O)N2CCCN(C)CC2)c1OC`, the “hERG current change (%, negative = inhibition) at 10uM” value is 4.44%.
`Cc1ccc(OCCC(=O)OCC(=O)NC2CCCC2)cc1`: the “hERG current change (%, negative = inhibition) at 10uM” value was 4.57%.
As to `O=C(CSCCc1ccccn1)Nc1cccnc1`, the “hERG current change (%, negative = inhibition) at 10uM” value is given as 18.4%.
In the case of `COc1ccccc1CNC(=O)/C(C#N)=C/c1ccc(OC)c(OC)c1OC`, the “hERG current change (%, negative = inhibition) at 10uM” value is recorded as -7.1%.
With `Cc1ccccc1OCc1n(CC(=O)OC2CC(C)CCC2C(C)C)c2ccccc2[n+]1C.[Cl-]` (stereo not drawn), the “hERG current change (%, negative = inhibition) at 10uM” value is given as -72%.
Regarding `Cc1ccc(CN2CCN(Cc3ccccc3)CC2)cc1`, the “hERG current change (%, negative = inhibition) at 10uM” value was -36%.
As for `CSc1ccc(S(=O)(=O)NCC(=O)OCCOc2ccccc2)cc1[N+](=O)[O-]`, the “hERG current change (%, negative = inhibition) at 10uM” value is given as -1.58%.
As to `C/C=C1/C[N+]2(C)CCC34C(=C(C=O)[C@H]1C[C@@H]32)Nc1ccccc14.[Cl-]` (stereo partly drawn), the “hERG current change (%, negative = inhibition) at 10uM” value is listed as 10.6%.
For `Clc1ccc(CCNc2nc3ccccc3n3nnnc23)cc1`, the “hERG current change (%, negative = inhibition) at 10uM” value came to 2.56%.
Regarding `Cl.O=C(O)c1ccc(Nc2c3ccccc3nc3ccccc23)cc1`, the “hERG current change (%, negative = inhibition) at 10uM” value is given as -2.61%.
